Results on 24 sequences are retold here after the supplement of paper PMC11417369.

Some of the results follow.

This assay has as its system PfAP2-HC AP2 domain (GST-tagged). As to the kind of experiment: gcPBM binding intensity (ln(normalized median fluorescence intensity)); higher = stronger DNA binding. Put shortly: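 Binding of GST-tagged P. falciparum DNA-binding domains, expressed in E. coli and used at about 25 μg on average, was carried out for 1 h in 1× PBS containing 1% milk, 0.2 mg/ml BSA, 0.5% salmon testes DNA and 0.03% Triton X-100. The target was an Agilent 4 × 180k array of primer-extended double-stranded 36-bp intergenic genomic probes plus negative controls, read with Alexa488 anti-GST antibody at 488 nm. Binding intensity is the highest Masliner-normalised natural-log median intensity across replicate spots of either probe orientation.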
With “CGCGAACATACATACACACACATATTTATATAGGTA [CACACA_site6241]”, the “gcPBM binding intensity (ln)” value is 10.1.

As for “AAAATACTTTGAATTTGTACATATAGACATAATATT [XGTACX_site6181]”, the “gcPBM binding intensity (ln)” value was determined as 9.59.

As for “GATTATCTATCGCTTGAATGAAATGAAATCATGCAA [GTGCAC_negctrl_site471]”, the “gcPBM binding intensity (ln)” value worked out at 9.41.

“ATAATAAATGATAGCACACATATGTACATATATACA [CACACA_site864]”: the “gcPBM binding intensity (ln)” value was determined as 9.87.

Consider “AATACCGGAAAGCAAACACACATTTTAAAACCATAA [CACACA_site3862]”, for which the “gcPBM binding intensity (ln)” value is 10.2.

Turning to “AAATAAAATAAAAGCACACAAAATGTAAATAATTAT [CACACA_site2775]”, the “gcPBM binding intensity (ln)” value stood at 10.2.

In the case of “ACTATAAATATTTATAAACACACAAATATATATATT [CACACA_site7891]”, the “gcPBM binding intensity (ln)” value worked out at 9.88.

In the case of “ATTTATAAAACAGGCACACATATAATAAATTTTATA [CACACA_site2600]”, the “gcPBM binding intensity (ln)” value turned out to be 9.79.

Take “TAATAATTATTGCACGCACACAAAAACCTATAGATT [CACACA_site2931]”: the “gcPBM binding intensity (ln)” value came out at 9.86.

On to “ATACAATACACCGAACGTACATAAATCTATCTTTTA [XGTACX_site3668]”, for which the “gcPBM binding intensity (ln)” value worked out at 9.73.

“ATTTTTTTTTTTACAGTGGAACCATATTTGCTCATT [CACACA_negctrl_site940]”: the “gcPBM binding intensity (ln)” value stood at 9.72.

“TATATATATATAATTTGTACATATATATGTAACAAT [XGTACX_site8728]”: the “gcPBM binding intensity (ln)” value was 9.55.

As for “TTCTGCTACCACTTGAATGTCAATGAAATTAAAAAA [CACACA_negctrl_site1164]”, the “gcPBM binding intensity (ln)” value was 9.44.

With “TTTTAAAAAAAACAAAAACATTGTCATATGGAAAAT [CACACA_negctrl_site297]”, the “gcPBM binding intensity (ln)” value was 9.51.

For “GTATGTTAATTTAATTGTACAAAAAGATACACTGAT [XGTACX_site5710]”, the “gcPBM binding intensity (ln)” value worked out at 9.71.

Consider “AAATATAAAAAATATACACACATATAAAATCTATAT [CACACA_site7406]”, for which the “gcPBM binding intensity (ln)” value was 9.91.

In the case of “AGGAACAATATATTTGCACACAAAAAATATATATTT [CACACA_site3316]”, the “gcPBM binding intensity (ln)” value amounted to 9.97.

“TTTATATATCAATACATTATGTATTAAGTCTTACAT [TGCATGCA_negctrl_site499]”: the “gcPBM binding intensity (ln)” value was 9.77.

For “CAAAAAAAATTATACACACACACACCGATATATATA [CACACA_site4719]”, the “gcPBM binding intensity (ln)” value came out at 11.1.

For the sequence “TTTTAATTAAAAAAATATATAATAAAATTAAATTAT [CACACA_negctrl_site95]”, the “gcPBM binding intensity (ln)” value stood at 9.32.

For “GGTATATAAAAATATTGTACGAAAATATGCATATAA [XGTACX_site2501]”, the “gcPBM binding intensity (ln)” value worked out at 9.63.

For the sequence “ATGTTAATCATTAAAAATAAAGTTTAATATAAGAAT [XGTACX_negctrl_site155]”, the “gcPBM binding intensity (ln)” value came to 9.66.

Turning to “CAAAACAAGCAAAAATGTACTTGATAAATATTTTCT [XGTACX_site1776]”, the “gcPBM binding intensity (ln)” value came to 9.65.

On to “AACATACCCATATACACACACACATAAATACAGATA [CACACA_site4744]”, for which the “gcPBM binding intensity (ln)” value stood at 10.5.
